In all, about 33,000 sequences were measured (“E-score (-0.5 to 0.5)”: median about -0.036, highest 2% from about 0.37 on). Some of the results follow.
Target: T1, Yer064c (UniProt P40041)
T1 sequence: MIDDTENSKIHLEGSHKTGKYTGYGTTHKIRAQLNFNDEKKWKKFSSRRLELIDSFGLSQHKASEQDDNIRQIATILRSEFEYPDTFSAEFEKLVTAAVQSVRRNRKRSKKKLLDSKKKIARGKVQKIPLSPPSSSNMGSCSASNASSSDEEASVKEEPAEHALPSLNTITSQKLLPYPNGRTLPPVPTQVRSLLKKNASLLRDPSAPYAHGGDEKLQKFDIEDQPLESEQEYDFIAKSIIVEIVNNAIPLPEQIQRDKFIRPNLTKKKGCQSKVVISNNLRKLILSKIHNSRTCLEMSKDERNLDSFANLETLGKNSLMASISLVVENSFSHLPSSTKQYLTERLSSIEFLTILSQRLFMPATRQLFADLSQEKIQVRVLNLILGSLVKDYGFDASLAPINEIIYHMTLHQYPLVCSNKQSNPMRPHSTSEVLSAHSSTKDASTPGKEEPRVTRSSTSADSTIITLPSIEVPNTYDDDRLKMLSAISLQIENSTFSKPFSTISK
Test: PBM E-score (8-mer binding enrichment) (E-score (-0.5 to 0.5)); higher = stronger / more preferred TF binding; most listed sequences are background and not binding sites
Conditions: protein concentration: 200 nM; construct: GST-full length
Method: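 Universal 'all 10-mer' protein binding microarrays (Agilent AMADID 015681) probed with GST-tagged S. cerevisiae TFs (full-length or DBD) made by in vitro transcription/translation (PURExpress), about 100-200 nM. Bound TF was detected with fluorescent anti-GST. Each ungapped 8-mer (which stands for itself and its reverse complement) is scored by the PBM enrichment score (E-score), a modified Wilcoxon-Mann-Whitney statistic from -0.5 to +0.5, computed with the Universal PBM Analysis Suite. Scale: above 0.35 generally sequence-specific binding.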

Sequence	PBM E-score
TAGAACGA	0.135
ACGACAGG	-0.0834
AATATGTA	0.0357
AGGTTCGC	-0.122
TGAACGAA	-0.0706
CAAGTGAA	0.0855
ATACACCC	0.044
AAGCTTAC	0.0786
TCGGTGAA	0.164
TAACATGA	0.311
GAGGGAGA	0.0527
CGCCCTGC	-0.181
AAAACCTC	-0.0989
CAGTGCTC	0.0856
ATTAAGCA	-0.0338
ACTGTGCA	0.1
TGAGGCCA	-0.0565
CGAGGTTA	-0.102
CCTTTTTA	-0.00627
CGTAAATC	0.0598
CATTGGAC	-0.0943
AGCCTACG	-0.105
AAGCGTAC	-0.081
AATCTATA	0.108
ATAGGATG	0.0522

Sequence	PBM E-score
CGGGGTGA	0.104
AGCGAGGC	-0.282
AGTCCGCC	0.293
CACGTACA	0.0316
ATAGTAAG	0.077
GACTTCGA	0.267
CAGCTTCG	-0.0681
GCGAGTTA	0.039
GATTTAGA	0.203
CGCAACCG	-0.225
AAATGAAG	0.0192
ACAAACCA	-0.0464
ACTGCTGA	0.16
AACGCGCA	-0.0783
AGATCAAA	0.048
AGAATAAG	0.0158
CCTGTAGA	-0.262
GCCATCTA	0.0354
ATACCCTG	-0.232
ATAATAAC	-0.124
ACTCCACG	0.0785
CTGAGTAA	0.204
CTAAGCCA	0.0157
AAAAAATT	-0.0792
AGTCCCAG	-0.0136

Sequence	PBM E-score
GGGCCGCA	-0.28
CCGTTAAC	-0.0544
CTCCTTGA	0.0328
AGTTGGAC	-0.0344
ACGAGTAT	0.135
CACCAGGG	-0.167
ACCAAGCT	0.124
CATGTTGG	-0.0775
GGCAATCA	0.283
AAACGGAA	-0.101
GCGGAGGA	-0.216
CCTATGGA	-0.0997
CCAGACGC	-0.185
CAACTAAC	0.132
ACGCGTGG	-0.0261
CCTGGTGC	-0.136
TGCCCAAA	-0.271
AAGGTGGG	-0.0618
AACCTAAC	-0.172
GGCATTTA	-0.255
CCAGATAA	0.16
AAGTGCCT	-0.165
ACCCTGCG	-0.147
ATGTGTAC	0.193
AGCACTAC	0.0977

Sequence	PBM E-score
ATGAGCTG	-0.109
ATAGCGCC	-0.106
CAAGCAGA	-0.138
ATTCGCCC	-0.152
CAACCGGC	-0.11
ATTAGCTA	0.0473
AGGCTTTG	-0.279
CCGTGACA	-0.0855
CGGGTGGC	-0.133
GATCTGTA	-0.0639
GTATCTGA	0.106
AGGTCATG	0.17
AGGTCAGA	0.0471
TTAGTCAA	0.464
ATGCTCGG	-0.0304
CTCCCGGC	-0.115
AAGTGGAT	-0.143
CGTTGTCA	-0.123
AAACGTCT	-0.07
CCGAGGCC	-0.399
ATACTTCC	-0.257
CAACTGTC	-0.0861
ACGTGGGG	-0.25
ATACGAGA	-0.0298
GAATACTC	0.119

Sequence	PBM E-score
GACTGGGC	0.0848
GTCGATGA	0.261
CGATCTGC	-0.0747
GCGAGGTA	-0.0192
CGTTGAAG	-0.0481
CCTTGTCC	-0.0981
TACGTGGA	-0.0983
AGTCAGCA	0.455
ACAGGGGA	-0.21
AGCTTAAT	0.00456
CTCTGCTC	-0.0659
CCTCTAGA	0.0428
GCGAGTAC	0.211
ATACTTGC	-0.184
CCGCAAAA	0.0149
ATTAGACC	0.0346
CCGATTCA	0.166
AGGACCCC	-0.252
CGGGCCCA	-0.239
GTGGGAAA	0.0438
CAACGACC	-0.0283
CTCACCCA	0.244
CCGGGTAC	-0.0988
ATTAGTAG	0.146
GACTATCC	0.404

Sequence	PBM E-score
ACACCTCT	-0.0794
CTCCCATC	-0.0216
GCCACGGA	-0.114
AACAACTT	0.0228
CAGAGACA	-0.0213
ACACTTTG	0.062
GAATTAGA	0.0326
CGGCCTCA	-0.23
ACAACTTC	-0.0794
TTATGAAA	0.0843
AGCTCGTC	-0.165
GCTGCAAA	0.0143
ATGGCTGA	0.158
CGCCGGAC	-0.153
CAATCCTG	-0.00882
CACTCCGG	-0.097
AATCGAAG	0.165
ATTTGCGG	-0.00482
CCGATGCC	-0.041
TAGCGAGA	0.116
AACCCTCT	-0.196
AGCCTAGC	-0.166
AGACCCGA	-0.0274
CCGCGTCA	-0.294
CTACACTC	0.062

Sequence	PBM E-score
TGCTACCA	-0.253
TAGCACGA	-0.00447
ACCTCTTG	-0.172
AACCCGAA	-0.0529
CGACTTAG	0.272
AACGGCGT	-0.0655
AGTACGAG	0.0389
GCTAACTA	0.0516
ACTCTTCG	0.213
GCCCTAAA	-0.198
GCCCCTTA	-0.199
ACTAACAT	0.243
GAGTTTAC	0.101
ACTCCAGT	0.145
CTACTGTC	-0.0504
ACCAAACG	-0.0651
GAGGTCCC	-0.275
ATATTACC	0.148
TACTAGTA	0.216
AATTATCG	0.228
TGCGCACA	-0.0569
CGCGGGGC	-0.15
GCTAGCAA	-0.336
AGAAGAAA	-0.0793
AATATAGC	-0.00197

Sequence	PBM E-score
GAGTTCGA	0.185
AATCGGGG	-0.0692
ACATAGGA	-0.166
GCTCTCGA	-0.00707
CAGCCGCC	0.0131
ACTAGAGC	-0.084
CCGACTCA	0.441
CAAGAGTA	0.106
AGTTTGTA	-0.0175
GAGACCAC	-0.00898
CGATCGGA	-0.101
AGGTTGAT	0.103
ATACCAGC	-0.163
CGATTACG	0.0176
ATATCGAC	-0.00454
CGTATTCA	0.0313
GACCTACC	-0.0594
ATTTGAAG	-0.0752
CGTGACAC	0.0944
TATAGAGA	-0.00508
CGCGACTC	0.438
CCATTTCA	-0.137
AGCAGATG	-0.101
CTCATGTA	0.243
GCAACGAC	-0.0989

Sequence	PBM E-score
AATCGAAA	-0.0264
AAAGCGGG	-0.0607
GTGGTGGA	-0.14
CCCACAGA	-0.0634
ATCAGATA	0.0534
CGGATAGA	0.0559
AACCTCGT	-0.17
ATCTTAGG	-0.159
AGACTAGG	0.24
GGTACCTA	-0.0302
CGATTAGA	0.0752
ACCCCCCA	-0.291
CTGTACTC	0.144
CGACTGAA	0.257
ACAATGGA	0.0385
ACGCTTCC	-0.296
CGCTCCGA	0.0418
GGTGGCCA	-0.183
GAAAGATA	0.00944
